The record followed here is publication PMC9911399, “Two distinct binding modes provide the RNA-binding protein RbFox with extraordinary sequence specificity”.

The labels stand for the following.
B1: AGGCCUG (DNA:RNA)
RNA: GGGAGACCGGAAUUCAGAUUGUCCAGGCCUGUUAAAUCCCGUCGUAGCCACCA
DNA 1: CAATCTGAATTCCGGTCTCCC
DNA 2: TGGTGGCTACGACGGGATT
B2: GAGGCGA (DNA:RNA)
RNA: B1 RNA with A25G, G26A, C28G, U30G, G31A
DNA 1: CAATCTGAATTCCGGTCTCCC
DNA 2: TGGTGGCTACGACGGGATT
B3: CAUCUGG (DNA:RNA)
RNA: B1 RNA with A25C, G26A, G27U, C29U, U30G
DNA 1: CAATCTGAATTCCGGTCTCCC
DNA 2: TGGTGGCTACGACGGGATT
B4: UGCACUA (DNA:RNA)
RNA: B1 RNA with A25U, G27C, C28A, G31A
DNA 1: CAATCTGAATTCCGGTCTCCC
DNA 2: TGGTGGCTACGACGGGATT
B5: AUCUAAU (DNA:RNA)
RNA: B1 RNA with G26U, G27C, C28U, C29A, U30A, G31U
DNA 1: CAATCTGAATTCCGGTCTCCC
DNA 2: TGGTGGCTACGACGGGATT
B6: UAGCAGC (DNA:RNA)
RNA: B1 RNA with A25U, G26A, C29A, U30G, G31C
DNA 1: CAATCTGAATTCCGGTCTCCC
DNA 2: TGGTGGCTACGACGGGATT
B7: ACAUUGC (DNA:RNA)
RNA: B1 RNA with G26C, G27A, C28U, C29U, U30G, G31C
DNA 1: CAATCTGAATTCCGGTCTCCC
DNA 2: TGGTGGCTACGACGGGATT
B8: CUCAUUU (DNA:RNA)
RNA: B1 RNA with A25C, G26U, G27C, C28A, C29U, G31U
DNA 1: CAATCTGAATTCCGGTCTCCC
DNA 2: TGGTGGCTACGACGGGATT
B9: GGUUUCA (DNA:RNA)
RNA: B1 RNA with A25G, G27U, C28U, C29U, U30C, G31A
DNA 1: CAATCTGAATTCCGGTCTCCC
DNA 2: TGGTGGCTACGACGGGATT

Positions count from the first letter of the chain named. The list shows a part of the results.

For the experiment, the target named is T1, RBFOX1 RRM RbFoxmut (Fox-RRM*) (Homo sapiens, UniProt Q9NWB1 109-208, R118D;E147R;N151S;E152T).
T1 sequence: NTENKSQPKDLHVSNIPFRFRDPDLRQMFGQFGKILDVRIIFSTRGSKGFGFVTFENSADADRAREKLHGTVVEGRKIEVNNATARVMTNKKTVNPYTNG
The experiment is described as follows: EMSA; HiTS-Eq, 1 nM pool, 10 min; buffer printed only for the single-RNA assays: 10 mM Tris pH 7.5, 150 mM NaCl, 3.4 mM EDTA, 0.001% NP-40, 30 C. Conditions: tags: His6 N-terminal (pET28a); label: 5' 32P. In a few lines:
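Relative association constants, normalised to the cognate motif, were derived by comparing read counts of each RNA species with those of the control reaction. The RNA sequenced was the free fraction, separated by 8% native PAGE after a 10 min equilibration in 50 µL of 1 nM 5′-radiolabelled RNA (7 randomized nucleotides) with increasing concentrations of purified wild-type or mutant RbFox RRM.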
On the technique in general: In EMSA bound probe runs differently from free probe, usually more slowly.
Take B1: the binding signal is 0.19 KA relative to UGCAUGU.
For the molecule B2, the binding signal is 0.0608 KA relative to UGCAUGU.
As for B3, the figure is 0.101 KA relative to UGCAUGU.
In the case of B4, the binding signal is 0.11 KA relative to UGCAUGU.
With B5 the figure was 0.118 KA relative to UGCAUGU; with B6, 0.0788 KA relative to UGCAUGU.
Take B7: the binding signal was 0.126 KA relative to UGCAUGU.
With B8, the binding signal was 0.101 KA relative to UGCAUGU.
Consider B9, for which the binding signal is 0.196 KA relative to UGCAUGU.
